Data published in PubChem BioAssay AID504339 (National Center for Advancing Translational Sciences (NCATS), 2011).
Out of some 390,000 compounds screened, about 17,000 (4.4%) were called active. The shares of active, inactive and inconclusive entries below differ from those in the screen. Calls come from the whole dose curve; as a rule, active = well fitted inhibition curve with a large enough effect; inconclusive = small, poorly fitted or top-dose-only effect; inactive = no such curve, though single readings can be large or run the other way. A potency beside an inconclusive call is a rough fit, not a confirmed value.

These compounds were tested against Lysine-specific demethylase 4A (Homo sapiens) (UniProt O75164) (assay: qHTS Assay for Inhibitors of JMJD2A-Tudor Domain). Conditions: AlphaScreen JMJD2A-Tudor / H3K4me3 peptide binding; activity change, negative = inhibition: at 114 µM (top of the series).
% is set by controls: 0 for no effect and ±100 for the full control effect; potency is the fitted concentration of half-maximal effect; tags give direction and shape of the fitted curve.
Note: nearly all actives have a fitted effect of over 50% in size.

Chain of UniProt O75164 (O75164 whole entry, looked up, the tested form may be a part): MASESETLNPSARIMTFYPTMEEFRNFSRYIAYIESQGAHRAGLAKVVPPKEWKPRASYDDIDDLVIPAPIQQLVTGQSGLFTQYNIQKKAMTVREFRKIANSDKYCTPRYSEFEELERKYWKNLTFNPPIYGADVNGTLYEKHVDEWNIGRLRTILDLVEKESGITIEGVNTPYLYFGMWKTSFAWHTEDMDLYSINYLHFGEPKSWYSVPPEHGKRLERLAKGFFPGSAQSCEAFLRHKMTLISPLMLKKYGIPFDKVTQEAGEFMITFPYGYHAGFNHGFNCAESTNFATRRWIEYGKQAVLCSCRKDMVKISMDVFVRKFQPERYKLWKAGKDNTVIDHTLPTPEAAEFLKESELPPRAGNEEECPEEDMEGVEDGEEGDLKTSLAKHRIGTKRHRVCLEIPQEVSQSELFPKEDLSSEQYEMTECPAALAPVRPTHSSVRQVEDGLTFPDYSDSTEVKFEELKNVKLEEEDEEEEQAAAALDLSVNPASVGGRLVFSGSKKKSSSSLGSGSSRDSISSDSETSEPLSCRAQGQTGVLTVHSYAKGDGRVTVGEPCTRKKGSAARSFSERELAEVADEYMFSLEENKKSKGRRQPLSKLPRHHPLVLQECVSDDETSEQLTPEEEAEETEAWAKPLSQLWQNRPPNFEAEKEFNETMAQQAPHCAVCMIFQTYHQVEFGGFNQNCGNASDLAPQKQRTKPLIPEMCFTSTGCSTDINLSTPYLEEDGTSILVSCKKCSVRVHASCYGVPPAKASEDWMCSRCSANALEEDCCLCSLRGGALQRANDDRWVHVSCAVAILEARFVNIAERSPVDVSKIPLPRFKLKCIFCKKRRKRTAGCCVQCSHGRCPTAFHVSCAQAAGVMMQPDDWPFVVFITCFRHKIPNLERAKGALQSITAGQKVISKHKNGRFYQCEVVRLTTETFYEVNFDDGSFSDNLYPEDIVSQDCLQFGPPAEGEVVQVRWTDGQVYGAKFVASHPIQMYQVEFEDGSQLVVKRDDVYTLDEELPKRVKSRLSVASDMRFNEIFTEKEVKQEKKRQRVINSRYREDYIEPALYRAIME

Compound	Potency	activity change, negative = inhibition
Cc1ccc(C(=O)NC(=S)NNC(=O)COc2ccccc2C)cc1	active: 22.4 µM	
Cc1cccc(NC2=C(NCCO)C(=O)c3ccccc3C2=O)c1	active: 56.2 µM	
Cc1cc(NC(=O)c2ccc(F)cc2)n(-c2ccccn2)n1		inactive: -10.4%
c1ccc(Cc2c[nH]c3ccccc23)cc1		inactive: -20.4%
COc1cc2c(cc1OC)C1(CCCC1)C(N)=C2C#N	inconclusive: 56.2 µM [inhibitor, partial curve]	
COCCN(C(=O)C1CCN(C(=O)c2ccccc2C)CC1)c1c(N)n(CC(C)C)c(=O)[nH]c1=O	active: 89.1 µM	
CCN(CC)CC(C)CNC(=O)c1cc(-c2ccc(Br)s2)nc2ccccc12 (stereo unspecified)		inactive: -0.683%
O=C(Nc1cccc(Cl)c1N1CCOCC1)c1cccnc1Cl		inactive: 7.29%
O=C(CSc1nnc(-c2ccncc2)n1Cc1ccccc1)Nc1nccs1	active: 89.1 µM	
CCCNC(=O)C1CC(=O)N(c2ccc(OCC(=O)Nc3cc(C)cc(C)c3)cc2)C1 (stereo unspecified)	inconclusive: 39.8 µM [inhibitor, partial curve]	
COc1ccc(/C=C(\NC(=O)/C=C/c2ccco2)C(=O)NCCc2nc3ccccc3[nH]2)cc1	inconclusive: 70.8 µM [inhibitor, single point]	
CC(C)CNC(=O)c1cccc(C(=O)NCC(C)C)c1		inactive: -20.3%
CN(c1ccc(O)cc1)c1nc(-c2ccccc2)cs1		inactive: -24%
CN(CC(=O)Nc1ccccc1C(=O)NC1CC1)Cc1ccc(N(C)C)cc1	inconclusive: 63.1 µM [inhibitor, partial curve, poor fit]	
CCN(c1ccc(NC(=O)c2cccc(S(=O)(=O)N3CCN(C)CC3)c2)cc1)C(C)C	inconclusive: 56.2 µM [inhibitor, partial curve]	
Cn1c(=O)n(-c2ccc3c(c2)OCO3)c2nc(-c3ccccc3)nc(C(N)=O)c21	inconclusive: 70.8 µM [inhibitor, partial curve, poor fit]	
Cc1ccc(S(=O)(=O)N(C)C)cc1NC(=O)COC(=O)CNC(=O)c1cccs1		inactive: -5.52%
COc1ccc(C(NC(=O)/C=C/c2ccco2)c2ccc(OC)cc2)cc1	inconclusive: 15.8 µM [inhibitor, full curve]	
COc1cccc(OC)c1NC(=O)C1CCCN1C(=O)Nc1cccc(Cl)c1 (stereo unspecified)	inconclusive: 100 µM [inhibitor, partial curve, poor fit]	
COc1ccc(NC(=O)c2sc3nc[nH]c(=O)c3c2C)cc1Cl		inactive: -8.71%
C/C(N)=C(/C#N)C(=O)COC(=O)CNS(=O)(=O)c1c(F)cccc1F		inactive: -14.3%
COc1cccc2c1cc1c(=O)n(CC(=O)N3CCN(c4cccc(C)c4)C(C)C3)nc(C)n12 (stereo unspecified)		inactive: -14.5%
O=C(Oc1cccnc1)c1ccc(Cl)cc1		inactive: 7.37%
Cc1cc(C)cc(NC(=O)CSc2cc(C)[nH]c(=O)n2)c1		inactive: -2.6%
Cc1cccc(C(=O)N[C@H](C(=O)OCc2cc(=O)n3c(n2)sc2ccccc23)C(C)C)c1	inconclusive: 56.2 µM [inhibitor, partial curve]	
COc1cccc(-c2nc(NCC3CCCO3)c3ccccc3n2)c1O (stereo unspecified)	inconclusive: 50.1 µM [inhibitor, partial curve]	

Compound	Potency	activity change, negative = inhibition
O=c1oc2ccccc2cc1-c1nc2c(s1)CCc1ccccc1-2	inactive	
Cc1nc(SC2CC(=O)N(c3ccccc3)C2=O)n[nH]1 (stereo unspecified)	inconclusive: 0.708 µM [inhibitor, full curve, poor fit]	
Nc1c(C(=O)OCC(=O)Nc2cccc([N+](=O)[O-])c2)[nH]c(=O)[nH]c1=O	active: 79.4 µM	
CCOC(=O)c1[nH]c(C)c(CCC(=O)NCc2ccc(N(C)C)cc2)c1C	inconclusive: 63.1 µM [inhibitor, partial curve, poor fit]	
C=CCn1c(=O)c2ccccc2n2c(SCC(=O)Nc3sc(C(=O)N(CC)CC)c(C)c3C(=O)OCC)nnc12	inconclusive: 12.6 µM [inhibitor, partial curve]	
O=C(O)c1ccc(N2C(=O)Nc3ccccc3N2O)cc1	inconclusive: 89.1 µM [inhibitor, partial curve]	
CC(=O)Nc1ccc(C2=NNC(=Nc3cccc(S(=O)(=O)N(C)C)c3)SC2)cc1	active: 35.5 µM	
Cc1ccc(C)n1-c1ccc(-c2ccn[nH]2)cc1		inactive: -28.5%
CCOc1ccc(C(=O)NCC(=O)NCCCSc2ccccc2)cc1OCC		inactive: -14%
COc1ccc(Cl)cc1NS(=O)(=O)c1ccc2[nH]c3c(c2c1)CCCC3	inconclusive: 25.1 µM [inhibitor, full curve]	
COC(=O)CSc1nc(-c2ccccc2)cc(-c2ccco2)c1C#N	inconclusive: 100 µM [inhibitor, single point]	
COc1cccc(NS(=O)(=O)c2ccc3c(c2)C2C=CCC2C(c2ccc(C(=O)O)cc2)N3)c1 (stereo unspecified)	active: 44.7 µM	
C/C(=N\Nc1nc2ccccc2c(=O)n1O)c1ccco1	inconclusive: 44.7 µM [inhibitor, full curve, poor fit]	
CCn1cnc2sc(C(=O)N(Cc3ccc(N(C)C)cc3)Cc3ccco3)c(C)c2c1=O	active: 50.1 µM	
Cc1c(C(=O)N2CCN(CC(=O)Nc3ccccc3Cl)CC2)oc2ccc(Br)cc12		inactive: -22.5%
CC(C)(C)NC(=O)CSc1nnc(-c2ccncc2)o1		inactive: -13.5%
COC/C=C/C1=CC2=CC(=O)C(C)(OC(=O)c3cnc4ccccc4n3)C(=O)C2=CN1c1ccccc1 (stereo unspecified)	inconclusive: 39.8 µM [inhibitor, partial curve]	
CN(Cc1ccccc1)C(=O)c1ccc2c(c1)N(Cc1ccccc1F)C(=O)c1ccccc1S2(=O)=O		inactive: -16.5%
O=C(Nc1cc(-c2nc3ccccc3s2)ccc1Cl)c1cc2ccccc2o1		inactive: -5.88%
CCCCNc1c(-c2cccc(-c3ccc(OC)cc3)c2)nc2cc(C)ccn12	inconclusive: 35.5 µM [inhibitor, partial curve]	
CN(C(=O)c1ccc(NC(=O)Cc2cccc(NC(=O)C3CCCN(C(=O)C4CC4)C3)c2)cc1)C1CC1 (stereo unspecified)		inactive: -33.1%
O=C(c1ccccc1)c1ccc(OCC(O)CNCc2ccc(Cl)cc2)cc1 (stereo unspecified)	active: 20 µM	
COc1ccc(CCCNC(=O)C2CCC(=O)N(CC3CCCCC3)C2)cc1 (stereo unspecified)		inactive: -4.83%
COc1ccc(OC)c(S(=O)(=O)N2CCCC(C(=O)NCc3ccccn3)C2)c1 (stereo unspecified)		inactive: -19.6%
CSCCC(NS(=O)(=O)c1ccc2c(c1)oc(=O)n2C)C(=O)N1CCN(c2cc(C)ccc2C)CC1 (stereo unspecified)		inactive: -22.1%
Cc1ccc(NC(CC(=O)c2ccccc2)c2ccc(F)cc2)cc1 (stereo unspecified)	inconclusive: 31.6 µM [inhibitor, full curve, poor fit]	

Compound	Potency	activity change, negative = inhibition
COc1cccc(C(=O)Nc2ccc3nc(SCC(=O)N4CCOCC4)sc3c2)c1		inactive: -3.64%
COc1ccc(C2CC(=O)C3=C(C2)NC(C)=C(C#N)C3c2ccc(N(C)C)cc2)cc1 (stereo unspecified)	inconclusive: 39.8 µM [inhibitor, partial curve]	
COc1ccc(C(=O)Nc2ccc(-c3ccc(C)o3)cc2)cc1S(=O)(=O)N1CCOCC1		inactive: -10.3%
CC(C)N(C(=O)CSc1nnc(CN2CCCCCC2=O)n1-c1ccccn1)C(C)C	active: 89.1 µM	
O=C(NC1=NCCS1)c1cccs1	inconclusive: 10 µM [inhibitor, partial curve]	
CCC(C)(C)n1nnnc1C(c1ccc(F)cc1)N1CCN(C(=O)c2ccco2)CC1 (stereo unspecified)		inactive: -16.5%
CCN1CCN(C(C)C(=O)Nc2c(C)n(C)n(-c3ccccc3)c2=O)CC1 (stereo unspecified)	active: 7.94 µM	
N=C1SC(CC(=O)Nc2ccc([N+](=O)[O-])cc2)C(=O)N1c1ccccc1 (stereo unspecified)		inactive: -30.1%
Cc1ccc(NC(=O)c2cc([N+](=O)[O-])ccc2N2CCOCC2)cc1C	inconclusive: 50.1 µM [inhibitor, partial curve]	
CCN(CC)c1cc(C)c2ccccc2n1	inconclusive: 39.8 µM [inhibitor, single point]	
O=C1OC(c2ccccc2)=C/C1=C/c1cccs1	inconclusive: 25.1 µM [inhibitor, full curve]	
CN(C)c1ccc(C(=O)n2nnc3ccccc32)cc1		inactive: 22.6%
CN(C)c1cccc(C(=O)Nc2nnc(Cc3ccccc3)s2)c1	inconclusive: 44.7 µM [inhibitor, partial curve]	
O=[N+]([O-])c1ccc(NN=Cc2ccco2)nc1	inconclusive: 50.1 µM [inhibitor, partial curve]	
CCOc1cccc(C2c3[nH]c4ccccc4c3CCN2C(=O)c2ccccc2F)c1 (stereo unspecified)	inconclusive: 11.2 µM [inhibitor, full curve]	
Cc1cc(C(C)(C)C)ccc1OCCN(C)C	active: 7.94 µM	
CC(C)(C)c1ccc(C(=O)NC(=S)NNC(=O)c2cccs2)cc1	inconclusive: 50.1 µM [inhibitor, partial curve]	
COC(=O)c1ccc(C2/C(=C(/O)c3ccc(Cl)cc3)C(=O)C(=O)N2C2CCS(=O)(=O)C2)cc1 (stereo unspecified)	active: 89.1 µM	
CCn1c(SCC(=O)Nc2ccc(N3CCOCC3)c(Cl)c2)nnc1-c1ccc(N)cc1	inconclusive: 89.1 µM [inhibitor, single point]	
CCOC(=O)c1c(C)[nH]c(C)c1S(=O)(=O)NCc1cc(C)ccc1C	inconclusive: 100 µM [inhibitor, single point]	
Cc1ccccc1CN1CCN(c2ccc(S(=O)(=O)N3CCCC3)cn2)CC1		inactive: -8.27%
O=C1NCCC/C1=N\Nc1ccc(Br)cc1	inconclusive: 89.1 µM [inhibitor, single point]	
O=C1CSC(=S)N1N=Cc1ccc(Cl)s1	active: 28.2 µM	
c1ccc(Nc2nc(NCCN3CCOCC3)nc(Nc3ccccc3)n2)cc1	inconclusive: 44.7 µM [inhibitor, partial curve, poor fit]	
